Test results: article PMC4336329 (PLoS ONE, 2015)
In all, about 310,000 compounds went through this assay and about 2,200 (0.71%) showed an effect of 50% or more. The effect is printed as a negative number. This is one part of the list.

The compounds below were run against human ether-à-go-go-related gene (hERG) potassium channel (human, UniProt Q12809) (assay: primary screen, population patch clamp on CHO cells stably expressing hERG).
Sequence of human ether-à-go-go-related gene (hERG) potassium channel (Q12809 whole entry, looked up): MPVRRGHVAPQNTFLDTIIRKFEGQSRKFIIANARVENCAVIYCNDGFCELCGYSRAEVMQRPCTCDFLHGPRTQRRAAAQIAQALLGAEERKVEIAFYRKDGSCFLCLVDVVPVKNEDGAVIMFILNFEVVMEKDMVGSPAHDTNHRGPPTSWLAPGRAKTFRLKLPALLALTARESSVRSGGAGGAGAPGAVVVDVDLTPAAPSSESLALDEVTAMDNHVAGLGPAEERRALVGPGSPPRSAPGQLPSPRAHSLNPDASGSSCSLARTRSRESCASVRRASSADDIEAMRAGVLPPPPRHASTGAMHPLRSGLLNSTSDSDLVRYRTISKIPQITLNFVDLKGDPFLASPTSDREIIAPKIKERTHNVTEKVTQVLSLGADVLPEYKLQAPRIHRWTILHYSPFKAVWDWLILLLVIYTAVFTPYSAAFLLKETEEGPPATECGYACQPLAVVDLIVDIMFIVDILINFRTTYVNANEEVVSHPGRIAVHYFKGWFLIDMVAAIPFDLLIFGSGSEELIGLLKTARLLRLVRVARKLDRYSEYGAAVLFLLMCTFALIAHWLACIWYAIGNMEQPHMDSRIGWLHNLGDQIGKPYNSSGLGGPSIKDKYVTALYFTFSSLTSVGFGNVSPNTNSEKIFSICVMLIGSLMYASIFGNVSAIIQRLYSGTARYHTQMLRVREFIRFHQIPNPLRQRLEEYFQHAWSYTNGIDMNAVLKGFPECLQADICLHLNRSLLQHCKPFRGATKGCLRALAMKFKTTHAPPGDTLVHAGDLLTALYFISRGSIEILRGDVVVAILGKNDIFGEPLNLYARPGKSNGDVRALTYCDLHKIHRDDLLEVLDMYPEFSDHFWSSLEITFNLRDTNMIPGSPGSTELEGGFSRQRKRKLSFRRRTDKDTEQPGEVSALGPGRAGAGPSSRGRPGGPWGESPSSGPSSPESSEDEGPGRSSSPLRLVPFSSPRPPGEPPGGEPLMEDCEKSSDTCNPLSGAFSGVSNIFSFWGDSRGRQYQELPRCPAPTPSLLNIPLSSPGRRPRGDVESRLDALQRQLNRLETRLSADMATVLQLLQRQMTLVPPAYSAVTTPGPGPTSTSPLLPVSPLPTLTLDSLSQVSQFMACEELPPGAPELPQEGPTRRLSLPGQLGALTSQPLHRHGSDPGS

Compound	hERG current change (%, negative = inhibition) at 1uM
CC(=O)NCCNC(=O)c1ccc(CSc2nc3ccccc3s2)cc1	13.5%
CN(C)CCCN(C(=O)c1sc2ccccc2c1Cl)c1nc2ccc(F)cc2s1.Cl	-1.97%
O=c1cc(C(Cl)(Cl)Cl)oc2c1ccc1ccccc12	12.4%
CCc1ccccc1N1CN(Cc2ccco2)CNC1=S	12.4%
Cn1c(=O)c2ncn(CC(=O)NCCOCc3ccccc3Cl)c2n(C)c1=O	9.02%
CCCC(C)C1(CC)C(=O)NC(=Nc2ccc(F)cc2)NC1=O (centres unmarked)	10.2%
CC(=O)OC1CC2(C)C(=O)CCC2C2CCc3cc(O)ccc3C12 (centres unmarked)	7.05%
COc1ccc2nc(Nc3nc(CSc4nnnn4-c4ccccc4)cc(=O)[nH]3)nc(C)c2c1	5.06%
CSc1nsc(/C=C/Nc2ccc(O)cc2C)c1C#N	-4.27%
COc1ccc(-c2nn(-c3ccccc3)cc2C(=O)N2CCOCC2)cc1	8.83%
O=C(/C=C/c1cccc(Cl)c1)NNC(=O)c1ccncc1	6.95%
Cc1ccc(S(=O)(=O)Nc2nc3ccccc3nc2N2CCc3ccccc3C2)cc1	8.57%
Cc1ccc(O)c(C(=O)c2cnc3c(c2)c(-c2ccc(F)cc2)c(C#N)c(=O)n3C)c1	8.29%
O=C(CSC1=NCCS1)Nc1ccc(F)cc1	7.04%
COC(=O)c1ccccc1NC(=O)Nc1ccc(Cl)cn1	-1.39%
Cc1ccc(NCN2C(=O)C(=O)c3ccccc32)nc1	0.944%
COc1ccccc1N(CC(=O)Nc1cccc(C(F)(F)F)c1)S(C)(=O)=O	12%
CCOC(=O)C1(CC/C(C)=N\NC(N)=O)CC(C)OC1=O (centres unmarked)	0.102%
O=C(CS(=O)c1cccc(Cl)c1)Nc1ccccc1Cl (centres unmarked)	4.93%
O=C(C1CCN(Cc2ccc(Cl)cc2)CC1)N1CCN(Cc2ccc3c(c2)OCO3)CC1	-11.2%

Compound	hERG current change (%, negative = inhibition) at 1uM
Cc1cccc(C)c1NC(=O)C(NC=O)c1ccc(Cl)cc1 (centres unmarked)	0.273%
CN(CC(=O)NC1CC1)S(=O)(=O)c1cc(Cl)ccc1Cl	12.6%
O=C(Nc1cnccn1)c1ccc(F)cc1Cl	-5.32%
COc1ccc2cc(C(=O)C3CCCN(Cc4ccccn4)C3)ccc2c1 (centres unmarked)	-14.6%
CCc1ccccc1NS(=O)(=O)Cc1ccccc1	7.82%
CC(C)N1CC(C(=O)Nc2ccc(S(=O)(=O)N3CCCCC3)cc2)CC1=O (centres unmarked)	16.3%
O=C(COC(=O)CCc1ccccc1)Nc1cc(S(=O)(=O)N2CCOCC2)ccc1N1CCCC1	22%
O=c1nc(N(c2ccccc2)c2ccccc2)[nH]c(=O)[nH]1	-7.77%
O=C(c1ccc2c(c1)OCCO2)N1CCN(c2ccccn2)CC1	15.2%
COc1ccc(C(=O)Nc2cccc(/C(C)=N/NC(=O)c3ccc([N+](=O)[O-])cc3)c2)cc1OC	7.54%
Cc1cc(/C=N/NC(N)=S)c(C)n1-c1ccc(Cl)cc1	1.13%
COc1ccc(/C=N/NC(=O)CN2CCCC2)cc1	11.1%
O=C(CN1C(=O)c2cccc3cccc1c23)NC1CCCC1	15.4%
COc1ccc(CN2CCN(C(=O)c3cccnc3)CC2)cc1Br.O=C(O)C(=O)O	8.44%
Nc1ccccc1-c1nnc(-c2ccc(-c3ccccc3)cc2)o1	8.03%
c1ccc(-n2cnc3ccccc32)nc1	11.5%
CC(C)Oc1cccc(C2NC(=O)c3ccccc3O2)c1 (centres unmarked)	14.4%
Cc1ccc(CCN2CC(C(=O)NCCCOC(C)C)CC2=O)cc1 (centres unmarked)	-1.67%
COc1ccc(CN2C(=O)Cc3c2nc(N)c2c(N)nc(N4CCCCC4)c(C#N)c32)cc1	9.23%
CC1(NC(=O)N2CCOCC2)CCS(=O)(=O)C1 (centres unmarked)	10.1%

Compound	hERG current change (%, negative = inhibition) at 1uM
N#CC1=C(SCC(=O)c2ccccc2)NC2=C(C(=O)CCC2)C1c1ccco1 (centres unmarked)	13%
CC(NC(=O)C1CCCN1C(=O)OCc1ccccc1)c1ccccc1 (centres unmarked)	-1.85%
CCSc1nc2cc(OC)c(OC)cc2c(=O)n1CC	14.9%
CCC(=O)N/C(=N/c1nc(C)cc(C)n1)Nc1ccc(C)cc1	14.1%
CC(C)CN(C#N)c1nc(N2CCOCC2)nc(N2CCOCC2)n1	4.74%
O=C1C(=O)N(CCO)C(c2ccc(Br)cc2)/C1=C(\O)c1ccccc1 (centres unmarked)	7.28%
Cc1cc(/C=C(\C#N)C(=O)NCc2ccco2)c(C)n1C1CCCC1	12.5%
CC(=O)NC(C)Cc1ccccc1 (centres unmarked)	12.1%
CC(=O)Nc1ccc(OC(=O)N2CCCC2)cc1	5.45%
CC1C=CCC2C(=O)N(c3cccc(C(=O)NCc4ccccc4)c3)C(=O)C12 (centres unmarked)	14.5%
CC(CCc1ccccc1)NC(=O)c1cncc(Br)c1 (centres unmarked)	-4.43%
CN(C)CC1CCCCC1OC(=O)c1ccc(Cl)cc1 (centres unmarked)	-4.39%
COc1ccc(/C=N/NC(=O)c2nc(-c3ccccc3)n(-c3ccccc3)n2)cc1OC	10.4%
C/C(=N\NC(=O)CCn1nnc2ccccc21)c1ccco1	2.71%
COC(=O)c1nn(-c2nc(-c3ccc(OC)c(OC)c3)cc(C(F)(F)F)n2)cc1[N+](=O)[O-]	0.806%
Cc1nc2cc3c(cc2s1)OCO3	16%
CCC1C(=O)N(C)CCc2ccccc21 (centres unmarked)	15.3%
COc1ccc(N2CC(O)=C(c3nc(-c4ccc(F)cc4)cs3)C2=N)cc1	11.8%
Cl.NS(=O)(=O)c1cccc(N2CCNCC2)c1	12.5%
